Reference: PMC9911399, “Two distinct binding modes provide the RNA-binding protein RbFox with extraordinary sequence specificity”
Changes are numbered by the printed parent chain; changes in the protein carry UniProt numbers. The list shows a part of the results.

T1: RBFOX1 RRM (Homo sapiens, UniProt Q9NWB1 109-208)
T1 sequence: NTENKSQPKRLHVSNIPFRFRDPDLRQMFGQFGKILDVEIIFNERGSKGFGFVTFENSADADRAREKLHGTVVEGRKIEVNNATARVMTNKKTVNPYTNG

B1: UGUUUUU (DNA:RNA)
RNA: GGGAGACCGGAAUUCAGAUUGUCCUGUUUUUUUAAAUCCCGUCGUAGCCACCA
DNA 1: CAATCTGAATTCCGGTCTCCC
DNA 2: TGGTGGCTACGACGGGATT
B2: CCCGAAU (DNA:RNA)
RNA: B1 RNA with U25C, G26C, U27C, U28G, U29A, U30A
DNA 1: CAATCTGAATTCCGGTCTCCC
DNA 2: TGGTGGCTACGACGGGATT
B3: AGCUCGA (DNA:RNA)
RNA: B1 RNA with U25A, U27C, U29C, U30G, U31A
DNA 1: CAATCTGAATTCCGGTCTCCC
DNA 2: TGGTGGCTACGACGGGATT
B4: GUCCCAA (DNA:RNA)
RNA: GGGAGACCGGAAUUCAGAUUGUCCGUCCCAAUUAAAUCCCGUCGUAGCCACCA
DNA 1: CAATCTGAATTCCGGTCTCCC
DNA 2: TGGTGGCTACGACGGGATT
B5: UUCCCCA (DNA:RNA)
RNA: B4 RNA with G25U, A30C
DNA 1: CAATCTGAATTCCGGTCTCCC
DNA 2: TGGTGGCTACGACGGGATT
B6: UUGUUUG (DNA:RNA)
RNA: B1 RNA with G26U, U27G, U31G
DNA 1: CAATCTGAATTCCGGTCTCCC
DNA 2: TGGTGGCTACGACGGGATT
B7: AGAGGAG (DNA:RNA)
RNA: B4 RNA with G25A, U26G, C27A, C28G, C29G, A31G
DNA 1: CAATCTGAATTCCGGTCTCCC
DNA 2: TGGTGGCTACGACGGGATT
B8: CUCUACU (DNA:RNA)
RNA: B4 RNA with G25C, C28U, C29A, A30C, A31U
DNA 1: CAATCTGAATTCCGGTCTCCC
DNA 2: TGGTGGCTACGACGGGATT
B9: CAUAUUG (DNA:RNA)
RNA: B1 RNA with U25C, G26A, U28A, U31G
DNA 1: CAATCTGAATTCCGGTCTCCC
DNA 2: TGGTGGCTACGACGGGATT
B10: UGCGUAG (DNA:RNA)
RNA: B1 RNA with U27C, U28G, U30A, U31G
DNA 1: CAATCTGAATTCCGGTCTCCC
DNA 2: TGGTGGCTACGACGGGATT
B11: ACCGCCC (DNA:RNA)
RNA: B4 RNA with G25A, U26C, C28G, A30C, A31C
DNA 1: CAATCTGAATTCCGGTCTCCC
DNA 2: TGGTGGCTACGACGGGATT
B12: AUUGGUC (DNA:RNA)
RNA: B1 RNA with U25A, G26U, U28G, U29G, U31C
DNA 1: CAATCTGAATTCCGGTCTCCC
DNA 2: TGGTGGCTACGACGGGATT
B13: CUCUGAA (DNA:RNA)
RNA: B4 RNA with G25C, C28U, C29G
DNA 1: CAATCTGAATTCCGGTCTCCC
DNA 2: TGGTGGCTACGACGGGATT
B14: UAAAGAU (DNA:RNA)
RNA: B1 RNA with G26A, U27A, U28A, U29G, U30A
DNA 1: CAATCTGAATTCCGGTCTCCC
DNA 2: TGGTGGCTACGACGGGATT
B15: CUGCACU (DNA:RNA)
RNA: B4 RNA with G25C, C27G, C29A, A30C, A31U
DNA 1: CAATCTGAATTCCGGTCTCCC
DNA 2: TGGTGGCTACGACGGGATT
B16: UUAAUUG (DNA:RNA)
RNA: B1 RNA with G26U, U27A, U28A, U31G
DNA 1: CAATCTGAATTCCGGTCTCCC
DNA 2: TGGTGGCTACGACGGGATT
B17: GUCUUUA (DNA:RNA)
RNA: B4 RNA with C28U, C29U, A30U
DNA 1: CAATCTGAATTCCGGTCTCCC
DNA 2: TGGTGGCTACGACGGGATT
B18: GUUCUUG (DNA:RNA)
RNA: B4 RNA with C27U, C29U, A30U, A31G
DNA 1: CAATCTGAATTCCGGTCTCCC
DNA 2: TGGTGGCTACGACGGGATT
B19: CUUUUAA (DNA:RNA)
RNA: B4 RNA with G25C, C27U, C28U, C29U
DNA 1: CAATCTGAATTCCGGTCTCCC
DNA 2: TGGTGGCTACGACGGGATT
B20: ACAGUAC (DNA:RNA)
RNA: B4 RNA with G25A, U26C, C27A, C28G, C29U, A31C
DNA 1: CAATCTGAATTCCGGTCTCCC
DNA 2: TGGTGGCTACGACGGGATT
B21: ACUGCUU (DNA:RNA)
RNA: B1 RNA with U25A, G26C, U28G, U29C
DNA 1: CAATCTGAATTCCGGTCTCCC
DNA 2: TGGTGGCTACGACGGGATT
B22: UACCGUG (DNA:RNA)
RNA: B4 RNA with G25U, U26A, C29G, A30U, A31G
DNA 1: CAATCTGAATTCCGGTCTCCC
DNA 2: TGGTGGCTACGACGGGATT
B23: AUAAUAG (DNA:RNA)
RNA: B4 RNA with G25A, C27A, C28A, C29U, A31G
DNA 1: CAATCTGAATTCCGGTCTCCC
DNA 2: TGGTGGCTACGACGGGATT
B24: AGUGCCA (DNA:RNA)
RNA: B4 RNA with G25A, U26G, C27U, C28G, A30C
DNA 1: CAATCTGAATTCCGGTCTCCC
DNA 2: TGGTGGCTACGACGGGATT
B25: UAUCGAG (DNA:RNA)
RNA: B4 RNA with G25U, U26A, C27U, C29G, A31G
DNA 1: CAATCTGAATTCCGGTCTCCC
DNA 2: TGGTGGCTACGACGGGATT
B26: UGUACAG (DNA:RNA)
RNA: B1 RNA with U28A, U29C, U30A, U31G
DNA 1: CAATCTGAATTCCGGTCTCCC
DNA 2: TGGTGGCTACGACGGGATT
B27: AUCCCUA (DNA:RNA)
RNA: B4 RNA with G25A, A30U
DNA 1: CAATCTGAATTCCGGTCTCCC
DNA 2: TGGTGGCTACGACGGGATT
B28: GCUCGUA (DNA:RNA)
RNA: B4 RNA with U26C, C27U, C29G, A30U
DNA 1: CAATCTGAATTCCGGTCTCCC
DNA 2: TGGTGGCTACGACGGGATT
B29: GGAAGGA (DNA:RNA)
RNA: B4 RNA with U26G, C27A, C28A, C29G, A30G
DNA 1: CAATCTGAATTCCGGTCTCCC
DNA 2: TGGTGGCTACGACGGGATT
B30: UUGAGCG (DNA:RNA)
RNA: B4 RNA with G25U, C27G, C28A, C29G, A30C, A31G
DNA 1: CAATCTGAATTCCGGTCTCCC
DNA 2: TGGTGGCTACGACGGGATT
B31: CCGCACC (DNA:RNA)
RNA: B4 RNA with G25C, U26C, C27G, C29A, A30C, A31C
DNA 1: CAATCTGAATTCCGGTCTCCC
DNA 2: TGGTGGCTACGACGGGATT

target: T1, RBFOX1 RRM; test: EMSA; HiTS-Eq, 1 nM pool, 10 min; buffer printed only for the single-RNA assays: 10 mM Tris pH 7.5, 150 mM NaCl, 3.4 mM EDTA, 0.001% NP-40, 30 C; settings: tags: His6 N-terminal (pET28a); label: 5' 32P
Procedure, shortened: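 Purified wild-type or mutant RbFox RRM at increasing concentrations was equilibrated with 1 nM of 5′-radiolabelled RNA carrying 7 randomized nucleotides for 10 min in 50 µL. Unbound RNA was separated by 8% native PAGE and sequenced. Relative association constants came from read-count changes of each RNA species compared with the control reaction, normalised to the cognate motif.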

Row | Binder | binding signal
1 | B1 | 0.0221 KA relative to UGCAUGU
2 | B2 | 0.0141 KA relative to UGCAUGU
3 | B3 | 0.0166 KA relative to UGCAUGU
4 | B4 | 0.00597 KA relative to UGCAUGU
5 | B5 | 0.00342 KA relative to UGCAUGU
6 | B6 | 0.0392 KA relative to UGCAUGU
7 | B7 | 0.00641 KA relative to UGCAUGU
8 | B8 | 0.00629 KA relative to UGCAUGU
9 | B9 | 0.00447 KA relative to UGCAUGU
10 | B10 | 0.023 KA relative to UGCAUGU
11 | B11 | 0.00162 KA relative to UGCAUGU
12 | B12 | 0.0211 KA relative to UGCAUGU
13 | B13 | 0.0135 KA relative to UGCAUGU
14 | B14 | 0.006 KA relative to UGCAUGU
15 | B15 | 0.014 KA relative to UGCAUGU
16 | B16 | 0.0141 KA relative to UGCAUGU

Row | Binder | binding signal
17 | B17 | 0.0114 KA relative to UGCAUGU
18 | B18 | 0.0212 KA relative to UGCAUGU
19 | B19 | 0.00804 KA relative to UGCAUGU
20 | B20 | 0.00284 KA relative to UGCAUGU
21 | B21 | 0.00868 KA relative to UGCAUGU
22 | B22 | 0.0094 KA relative to UGCAUGU
23 | B23 | 0.00154 KA relative to UGCAUGU
24 | B24 | 0.00651 KA relative to UGCAUGU
25 | B25 | 0.0122 KA relative to UGCAUGU
26 | B26 | 0.015 KA relative to UGCAUGU
27 | B27 | 0.000926 KA relative to UGCAUGU
28 | B28 | 0.0181 KA relative to UGCAUGU
29 | B29 | 0.00957 KA relative to UGCAUGU
30 | B30 | 0.026 KA relative to UGCAUGU
31 | B31 | 0.00593 KA relative to UGCAUGU
